Data on 44 sequences can be found in the supplement of paper PMC11417369.

Some of the results follow.

The test concerns PfSIP2 AP2 domain 1 (GST-tagged). As to the kind of experiment: gcPBM binding intensity (ln(normalized median fluorescence intensity)); higher = stronger DNA binding. The method in brief: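 DNA-binding domains from P. falciparum, fused to GST and produced in E. coli, were put on an Agilent 4 × 180k double-stranded probe array for 1 h in 1× PBS holding 1% milk, 0.2 mg/ml BSA, 0.5% salmon testes DNA and 0.03% Triton X-100. Probes were primer-extended, 36 bp long and drawn from intergenic genomic regions, with negative controls included. After Alexa488 anti-GST antibody detection and a 488 nm scan, binding intensity was set as the highest Masliner-normalised natural-log median intensity across replicate spots of either probe orientation.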
Turning to “TTTCAAATATATATAGCACACAAGGTATAATATAAA [CACACA_site877]”, the “gcPBM binding intensity (ln)” value came to 6.78.
The value for “TAATTTTTTTTAAACACACACATTACATTCAAAAAT [CACACA_site127]” was 7.17.
With “CTAATATAGGTATGCACACACAATATGTACATATTT [CACACA_site7558]”, the “gcPBM binding intensity (ln)” value was 8.5.
Next, “TTTTAATTAGTACAAACACACATATACACCCAAAAA [CACACA_site5422]”: 7.36; “TAATTGTAGACATGCACACACAAATATTATATATGT [CACACA_site845]”: 7.45; “AAGGTATAGAAACACACACACGTGAATATAGTTTAA [CACACA_site5109]”: 6.85.
Next, “TTCTTAAATATATTCAACATACATAATATATAATCT [CACACA_negctrl_site1806]”: 7.04; “AATATTTTTCAATTTCATGTGCATTCATTGAAGTTA [CACACA_negctrl_site1232]”: 7.34; “TATATATGTATATATTGTACTTTAAGACAAATATAT [XGTACX_site1052]”: 6.88.
Turning to “CGTTATATAATAAAGGTGCATAGATATATCATTATA [GTGCAC_site9774]”, the “gcPBM binding intensity (ln)” value came to 10.5.
Turning to “TATATAACATATATATGTACACATAATATCAGATTT [XGTACX_site1041]”, the “gcPBM binding intensity (ln)” value is 7.05.
As to “ACAAAAATATTTGTAAAAAGAAATATAAATAAATAA [TGCATGCA_negctrl_site357]”, the “gcPBM binding intensity (ln)” value is 6.78.
The value for “AAAAATAGAGCAGCTCTCATATTTTTATGTGCAATA [CACACA_negctrl_site837]” was 7.03; that for “AGGATATATTATATGTACACACACATATAAGGGATT [GTGCAC_negctrl_site47]” was 7.03; that for “GCATTTATGAAAAATGTACACACATCAAATGCTTAT [CACACA_site9347]” was 6.9.
Next, “TATTACACACAATATTGTACACATAGGAAAAATATT [XGTACX_site1726]”: 7.19.
The value for “TATTTTTTACATTCGTGTACGCATTTTTGTGAATTT [XGTACX_site5339]” was 6.89; that for “TCTAATACACAATGTTGTACATATTAATATATATGT [XGTACX_site2931]” was 7.17; that for “ATCATTCTTAAACCGTGTACTTATTATTTTTTTTTT [XGTACX_site2798]” was 7.09.
“AAATGACTATATAAAAGTACTAGAAAGTATAAATAT [XGTACX_site944]”: the “gcPBM binding intensity (ln)” value stood at 6.98.
As to “CATCCGTTGATATATGCATGCATATTGTTATTACCA [TGCATGCA_site868]”, the “gcPBM binding intensity (ln)” value was found to be 7.23.
As for “AAAATACACGATAGTTGTACATTAAATGTATACAAT [XGTACX_site360]”, the “gcPBM binding intensity (ln)” value is 6.91.
Turning to “GCATATATGGATATATAGGTATATATAAATGCAATA [GTGCAC_negctrl_site24]”, the “gcPBM binding intensity (ln)” value stood at 6.97.
Next, “CCTCTCATTTTATATAGTACATATTTCAAAAAAAAA [XGTACX_site488]”: 7.47; “AGGAGGATAGTTCACAGTACCCAGTAACTCTACGGA [XGTACX_site1997]”: 6.56.
For “ATATAAAAAAAAAATTGTACAAAAATATATACATAT [XGTACX_site469]”, the “gcPBM binding intensity (ln)” value came out at 7.03.
The value for “GCATATTTTCCCTGTGAATAAAGTTTTTTTTTTTAT [XGTACX_negctrl_site87]” was 6.76.
The value for “TATAAAGATATAAATGCACACGTATTAAAAAAAAAA [CACACA_site8223]” was 7.39.
For the sequence “TGTTACATAAAATGCACACTTTCAAATATGCTAATA [CACACA_site2925]”, the “gcPBM binding intensity (ln)” value was determined as 7.74.
As for “GAGATAAAATAAAACACACACATATATATATAGAAT [CACACA_site2197]”, the “gcPBM binding intensity (ln)” value was 7.
As to “AAAAAAATCTCCAGTGTGCACAATCACATAATATAT [GTGCAC_site9833]”, the “gcPBM binding intensity (ln)” value came out at 9.07.
In the case of “TATAAGCTAAGTTGTTGTACAAAAAGGAAAAGTATA [XGTACX_site3741]”, the “gcPBM binding intensity (ln)” value came to 7.09.
Consider “AATATATGGTTTCATGATATTAAATTCAATTTAATG [GTGCAC_negctrl_site370]”, for which the “gcPBM binding intensity (ln)” value was found to be 6.85.
Next, “TATACGTATTTTATATGTACACATATACATATTTAT [XGTACX_site5301]”: 6.98; “TTTTCTTTTAAGTTTGTTTTACACTTTTTATTTTGA [CACACA_negctrl_site1581]”: 6.62.
For the sequence “AAATATAAATATACTCGTACATATATATATATATAT [XGTACX_site6940]”, the “gcPBM binding intensity (ln)” value was 9.48.
For the sequence “ACTATATTTCATAACAGTACATATTCCTGAAACATC [XGTACX_site4924]”, the “gcPBM binding intensity (ln)” value turned out to be 7.27.
The value for “ACAATATAAAAAAATTGTACATAATATATAATATTA [XGTACX_site1040]” was 6.95; that for “CATGCTTATATGTGCACACACAAAAGAAAAGAAAAA [CACACA_site1655]” was 9.95; that for “TTCCTTTGTTGTCGTTGTACTTATATGGTTATAATT [XGTACX_site3082]” was 7.5.
Next, “TATACATAAAAAAATTTTACCAGGTTAATACAAATA [CACACA_negctrl_site1171]”: 6.95.
Next, “TACCTTATGTTATATACACACATATAACATAATATA [CACACA_site6741]”: 7.12.
In the case of “ATATATATATATAGTAGTACTCTCTCTGTATATATA [XGTACX_site3754]”, the “gcPBM binding intensity (ln)” value is 9.27.
Take “ATTTAGAAAAATAAAACACACATATATCTGTAAATA [CACACA_site6119]”: the “gcPBM binding intensity (ln)” value was 6.93.
